# Over roughly 33,000 sequences, “E-score (dimensionless, -0.5 to 0.5)” has its median near -0.058; the highest 2% begin near 0.35. Some of the results follow.
# System: MvaT
# Assay: PBM 8-mer E-score (mean of HK and ME arrays) (E-score (dimensionless, -0.5 to 0.5)); higher = stronger relative binding preference; most listed sequences are background and not binding sites
# Description: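 Protein binding microarray: GST-tagged full-length MvaT (P. aeruginosa PAO1) bound to two universal double-stranded 60-mer arrays (ME and HK), each with a constant 25-mer primer and a variable 35-mer region covering all 8-mers. The 8-mer E-score (rank-based, range -0.5 to 0.5, >0.45 = specific binding) is the mean of the two arrays.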
row,Sequence,PBM 8-mer E-score
1,CCTCATCG,-0.214
2,CGAATGCC,-0.185
3,CTTTAGTC,-0.127
4,ATGCCGCG,-0.149
5,GAGGTAGA,-0.147
6,GACTGGAC,-0.108
7,CTAGACTA,-0.0236
8,CTTAAACA,0.156
9,CTAGGGGC,-0.298
10,GCCAGTAC,-0.0306
11,CTGTCAGC,-0.181
12,CGCAACCC,-0.0943
13,ATCGAGGG,-0.246
14,ACTACTGG,0.0326
15,GAGTACAC,-0.00583
16,CTAGGTTA,-0.0518
17,CATAAACA,0.221
18,ACAGGTCT,-0.131
19,GTGGAAAC,-0.123
20,AAATTGAG,0.218
21,ATTAGCGG,-0.0498
22,CGTTTAGC,-0.0192
23,AACCCTTG,-0.138
24,ATCAGGCG,-0.0225
25,ATAACCGC,0.134

row,Sequence,PBM 8-mer E-score
1,AGCTAATA,0.292
2,CATCGGAA,-0.0575
3,AATGCACA,0.156
4,CCGAGTCG,-0.193
5,ACTCTTAA,0.223
6,ACTCATGC,-0.131
7,ACACTCAC,-0.0149
8,TAACGGCA,0.0803
9,AACCTGCG,-0.133
10,CGCTTTCC,-0.208
11,CAGCCAAA,-0.0503
12,AAGTGGTG,0.0778
13,GTGGTCGA,-0.241
14,AACACGGG,-0.0612
15,GGGTCATA,-0.0569
16,ACAAATCC,0.0804
17,CCGTAAGC,-0.12
18,ACCCACGC,-0.179
19,CACCTTGA,-0.124
20,TTCGAGAA,0.0479
21,CCACGTGG,-0.133
22,AGACGCAC,0.00037
23,CCTCGCCA,-0.0344
24,GGCGGCTA,-0.26
25,AGATCCTA,-0.24

row,Sequence,PBM 8-mer E-score
1,GCATCAAA,0.108
2,AAGACTAC,-0.0432
3,GACTGGCC,-0.107
4,CCACGTGC,-0.191
5,CATCTACA,0.0792
6,AAGCAAGT,0.254
7,ATCCAAGC,-0.169
8,ATAGACTA,0.266
9,CCCACTAC,-0.0788
10,CACAGGCA,-0.166
11,CCTAGCCC,-0.211
12,AAAGATGT,0.12
13,GAGGAGCC,-0.425
14,CGTTGATC,-0.0686
15,ATATCGCG,0.311
16,AACGGAGA,-0.128
17,CAATCTAA,0.124
18,AGTGTATA,0.268
19,GAGTTCGC,-0.0664
20,ACTCCAGG,-0.157
21,GCTAGTAA,0.0817
22,AAACTACT,0.303
23,GACCGGTA,0.0195
24,CGCGTGAG,-0.167
25,AGCGAGCT,-0.0901

row,Sequence,PBM 8-mer E-score
1,AGGTTCAC,-0.0288
2,AGCTGTCA,-0.156
3,AACGGCTC,0.0115
4,AACGCCCA,-0.0993
5,CAGAAACC,-0.146
6,CACAGGGA,-0.129
7,CGTTCGGA,-0.0914
8,CGCCTTAG,-0.186
9,CTCCACTC,-0.232
10,AACGTACA,0.132
11,GGTAACTA,0.107
12,CGGCCGGC,-0.122
13,CAGGAAAG,-0.11
14,CCTAAAAG,0.082
15,CGTGCGTC,-0.273
16,CATTCACC,0.119
17,CAAGGCTG,-0.161
18,GGCAGTCA,-0.0856
19,ACGCGTGA,0.0619
20,ACTGTGGC,-0.208
21,GGTTATTA,0.285
22,ATCACCCA,0.00261
23,GTACGACA,0.049
24,GGAATCCC,-0.22
25,ACCTATTG,0.0798

row,Sequence,PBM 8-mer E-score
1,GACAGCGA,-0.109
2,GGATCACC,-0.172
3,CTTAATTC,0.281
4,CCGTGGCA,-0.205
5,CGCTTAGC,-0.213
6,ACGAATAT,0.252
7,GCGGCTCC,-0.297
8,AGCACCCG,-0.392
9,CGTGCAAG,-0.0233
10,GAATCCAC,-0.159
11,CATATCCG,-0.0153
12,AGCTCTAT,0.0198
13,AGGTAAAC,0.0823
14,ATATAGCG,0.333
15,CTCCGTCC,-0.242
16,AGCACCAT,-0.169
17,CAACGTGC,-0.198
18,AATTCCGC,0.0978
19,AAAAGCAT,0.0311
20,GGACCATA,-0.132
21,ATGACCAC,-0.00499
22,GATTCAAC,-0.0777
23,GTGCGGAA,-0.0324
24,AAACACCG,0.222
25,ACGATAGC,-0.0306

row,Sequence,PBM 8-mer E-score
1,AGCGACGC,-0.23
2,ACTTTAGA,0.199
3,ACTTCACG,0.015
4,AGGGACAC,-0.232
5,GGGGCTTA,-0.186
6,CAGTCTGC,-0.126
7,CACAGATA,0.142
8,ACGCATTC,-0.0386
9,CCTAGCTA,-0.151
10,GCATACTA,0.186
11,CCTACCAG,-0.279
12,TGAAATCA,-0.0364
13,CCGGGTCA,-0.174
14,CACATTTA,0.301
15,CAGAAAGA,0.0379
16,AGGTTGTG,-0.073
17,ATGGCCGC,-0.268
18,CACGTAGA,0.0372
19,CGTTTGGC,-0.0932
20,ACCGATGA,-0.128
21,ATACAACC,0.161
22,CCCATTCA,-0.115
23,ACTTGAAA,0.308
24,GAACCCCA,-0.265
25,CGACTAAC,0.0164

row,Sequence,PBM 8-mer E-score
1,GATCGCGC,-0.193
2,TCCCTAGA,-0.158
3,GGTCGGCA,-0.197
4,AAGAGGCT,-0.22
5,ACATCTTC,0.185
6,CACGATAA,0.214
7,CATGCCGC,-0.26
8,CGTTCATA,0.0243
9,CAACCTGA,-0.074
10,ACGGAAAC,-0.0671
11,ACCTGGCC,-0.117
12,CATATACG,0.143
13,ACCGTTAA,0.255
14,GAGTTTGA,0.0246
15,ATTTATCG,0.291
16,CGAGTGCC,-0.245
17,AACAAGGA,-0.128
18,GGAGCTCC,-0.377
19,CCTGGGCG,-0.251
20,CACTGTGA,-0.112
21,CTCTTGAA,-0.222
22,CGACGGGA,-0.215
23,AGTAGTAA,0.27
24,AGATATCG,0.141
25,AGGGACCG,-0.271

row,Sequence,PBM 8-mer E-score
1,ATGACTAG,0.042
2,AGGAGCGA,-0.177
3,ATTGGTCA,0.103
4,ATCCGGCA,0.0186
5,AATTAGAC,0.169
6,AGTCGAGA,-0.111
7,ATCATCGA,-0.116
8,TACGCAAA,0.129
9,ATAGAACG,0.0944
10,CAACGATC,-0.135
11,TCAACGGA,-0.0413
12,TAGTGGCA,0.195
13,AAAGGCAG,-0.181
14,AAGGACCT,-0.236
15,CGGTTAAG,-0.0554
16,AGTGAATC,-0.0528
17,CCGATCTC,-0.17
18,CGGTACAG,-0.106
19,ACTCAGTC,-0.153
20,GCCAGTCA,-0.12
21,CGATGACG,-0.106
22,GCAAGAGC,-0.122
23,GAATCCCC,-0.214
24,CACATCCG,-0.145
25,AAAACATG,0.08

row,Sequence,PBM 8-mer E-score
1,CAGTTACA,0.272
2,ACGCTCAG,-0.242
3,GCAGGGCA,-0.394
4,AGCATAAT,0.338
5,GCCCTCTA,-0.286
6,CTCTCGAC,-0.207
7,GCGATTCA,-0.0568
8,AGCTGATC,-0.16
9,AAGTGTGC,0.0466
10,CACTACCA,0.0799
11,GCTGTTAC,-0.0475
12,GTAGAGAC,0.043
13,AACCAACT,0.113
14,ATTTGGTC,0.074
15,ACATAACC,0.133
16,CCTTTTGA,-0.074
17,CAGCGTGG,-0.178
18,ACGCATCC,-0.232
19,CTTTCAGC,-0.0206

# From the supplement of paper PMC4466236
